# Laboratory results reported in PubChem BioAssay (NCATS).
# Values joined by “and” are separate entries in the source; they are usually repeats but may differ in a detail not shown here. Equal entries are not always repeated. Inconclusive means that the source gave no clear call. Such entries were picked first, then a sample of the others. For part of these data: Potencies of inconclusive entries are left out as doubtful fits. For part of these data: A note “side channel” means that the fit belongs to a control or component signal, not to the main read-out. Active and inactive are the calls of the source. Unless noted, calls follow the shape of the full dose curve.
# Experiments:
# [1] = biological target: Retinoic acid receptor RXR-alpha (Homo sapiens) (UniProt P19793); test: qHTS assay for small molecule agonists of retinoid X receptor alpha signaling (AID 588544); details: HEK293T RXRa-UAS-bla, beta-lactamase reporter, 18 h; activation: at 76.7 µM (top of the series) unless noted; also: potency is read from the fitted curve at half-maximal effect;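 as to activation: 0% = DMSO basal wells and 100% = reference agonist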
# UniProt P19793, sequence (P19793 whole entry, looked up): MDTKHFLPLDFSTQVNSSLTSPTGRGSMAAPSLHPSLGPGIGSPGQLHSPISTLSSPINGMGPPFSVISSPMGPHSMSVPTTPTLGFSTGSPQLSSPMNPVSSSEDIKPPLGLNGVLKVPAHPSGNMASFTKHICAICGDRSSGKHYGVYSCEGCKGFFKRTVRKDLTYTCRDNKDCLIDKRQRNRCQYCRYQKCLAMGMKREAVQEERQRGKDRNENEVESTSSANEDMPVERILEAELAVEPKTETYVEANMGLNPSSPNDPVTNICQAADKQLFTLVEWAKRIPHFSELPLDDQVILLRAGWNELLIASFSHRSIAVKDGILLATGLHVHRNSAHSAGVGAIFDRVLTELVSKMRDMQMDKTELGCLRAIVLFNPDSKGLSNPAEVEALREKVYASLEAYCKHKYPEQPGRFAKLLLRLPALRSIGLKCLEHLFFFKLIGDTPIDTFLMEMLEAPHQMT
# [2] = biological target: Peroxisome proliferator-activated receptor gamma (Homo sapiens) (UniProt P37231); test: qHTS assay for small molecule antagonists of peroxisome proliferator-activated receptor gamma signaling (AID 588537; active = well fitted inhibition curve with a large enough effect in the signal ratio, with a control signal flat, not every such curve was filed as active; inconclusive = small, poorly fitted or top-dose-only effect, or effect the other way, or a change in a side signal; the % refers to the signal ratio; also: potency is read from the fitted curve at half-maximal effect;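 also: reporter cells co-stimulated with 50 nM rosiglitazone agonist during compound treatment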; as to activity, negative = inhibition: % of control where 0% means no effect); details: HEK293 PPARg-UAS-bla, beta-lactamase ratio, antagonist mode; activity, negative = inhibition: at 76.8 µM (top of the series)
# In short: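 Read-out: CCF4 fluorescence (ex 405, em 460/530 nm) after 2 h at RT. Cells were HEK293 carrying a UAS-bla reporter and treated 16 h at 37 C with compound plus rosiglitazone (50 nM final). Normalized to rosiglitazone and DMSO.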
# [3] = biological target: Thyroid hormone receptor beta (Homo sapiens) (UniProt P10828); test: qHTS assay for small molecule antagonists of thyroid hormone receptor beta signaling (AID 588547; active = well fitted inhibition curve with a large enough effect in the signal ratio, with a control signal flat, not every such curve was filed as active; inconclusive = small, poorly fitted or top-dose-only effect, or effect the other way, or a change in a side signal; the % refers to the signal ratio; also: potency is read from the fitted curve at half-maximal effect;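 as to activity change % (negative = inhibition): cells stimulated with 0.4 nM T3 agonist during compound exposure; % is scaled to controls: 0 for no effect and ±100 for the full control effect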); details: TR-UAS-bla HEK293, beta-lactamase ratio, antagonist mode, 18 h
# UniProt P10828, sequence (P10828 whole entry, looked up): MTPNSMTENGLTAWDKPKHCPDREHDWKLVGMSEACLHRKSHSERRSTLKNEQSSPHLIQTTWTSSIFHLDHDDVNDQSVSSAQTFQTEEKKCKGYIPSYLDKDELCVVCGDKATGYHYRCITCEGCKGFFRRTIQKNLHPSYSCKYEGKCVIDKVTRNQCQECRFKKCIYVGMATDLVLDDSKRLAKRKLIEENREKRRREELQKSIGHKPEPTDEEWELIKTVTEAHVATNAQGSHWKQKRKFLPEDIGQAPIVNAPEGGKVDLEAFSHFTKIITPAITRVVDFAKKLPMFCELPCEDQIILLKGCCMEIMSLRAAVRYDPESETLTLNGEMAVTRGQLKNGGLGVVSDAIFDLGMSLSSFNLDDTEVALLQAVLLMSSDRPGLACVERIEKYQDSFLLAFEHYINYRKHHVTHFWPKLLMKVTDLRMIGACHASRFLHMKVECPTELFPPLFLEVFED
# In short: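 TR-UAS-bla GripTite HEK293 cells in 2% charcoal/dextran FBS medium; compounds 0.59 nM to 92 uM with T3 at 0.4nM final, 18 h at 37 C. Beta-lactamase read by CCF4 fluorescence (460/530 nm); Hill fits gave IC50 and efficacy.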
# [4] = biological target: Voltage-gated inwardly rectifying potassium channel KCNH2 (Homo sapiens) (UniProt Q12809); test: qHTS Assay for Small Molecule Inhibitors of the Human hERG Channel Activity (AID 588834; active = well fitted curve in the direction sought with a large enough effect; inconclusive = small, poorly fitted or top-dose-only effect, or another doubt; inactive = no such curve, though single readings can be large; an effect the other way counts as inactive or inconclusive;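 also: potency is read from the fitted curve at half-maximal effect; lower thallium flux fluorescence means stronger hERG block; nearly all actives have a fitted effect of over 50% in size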)
# UniProt Q12809, sequence (Q12809 whole entry, looked up): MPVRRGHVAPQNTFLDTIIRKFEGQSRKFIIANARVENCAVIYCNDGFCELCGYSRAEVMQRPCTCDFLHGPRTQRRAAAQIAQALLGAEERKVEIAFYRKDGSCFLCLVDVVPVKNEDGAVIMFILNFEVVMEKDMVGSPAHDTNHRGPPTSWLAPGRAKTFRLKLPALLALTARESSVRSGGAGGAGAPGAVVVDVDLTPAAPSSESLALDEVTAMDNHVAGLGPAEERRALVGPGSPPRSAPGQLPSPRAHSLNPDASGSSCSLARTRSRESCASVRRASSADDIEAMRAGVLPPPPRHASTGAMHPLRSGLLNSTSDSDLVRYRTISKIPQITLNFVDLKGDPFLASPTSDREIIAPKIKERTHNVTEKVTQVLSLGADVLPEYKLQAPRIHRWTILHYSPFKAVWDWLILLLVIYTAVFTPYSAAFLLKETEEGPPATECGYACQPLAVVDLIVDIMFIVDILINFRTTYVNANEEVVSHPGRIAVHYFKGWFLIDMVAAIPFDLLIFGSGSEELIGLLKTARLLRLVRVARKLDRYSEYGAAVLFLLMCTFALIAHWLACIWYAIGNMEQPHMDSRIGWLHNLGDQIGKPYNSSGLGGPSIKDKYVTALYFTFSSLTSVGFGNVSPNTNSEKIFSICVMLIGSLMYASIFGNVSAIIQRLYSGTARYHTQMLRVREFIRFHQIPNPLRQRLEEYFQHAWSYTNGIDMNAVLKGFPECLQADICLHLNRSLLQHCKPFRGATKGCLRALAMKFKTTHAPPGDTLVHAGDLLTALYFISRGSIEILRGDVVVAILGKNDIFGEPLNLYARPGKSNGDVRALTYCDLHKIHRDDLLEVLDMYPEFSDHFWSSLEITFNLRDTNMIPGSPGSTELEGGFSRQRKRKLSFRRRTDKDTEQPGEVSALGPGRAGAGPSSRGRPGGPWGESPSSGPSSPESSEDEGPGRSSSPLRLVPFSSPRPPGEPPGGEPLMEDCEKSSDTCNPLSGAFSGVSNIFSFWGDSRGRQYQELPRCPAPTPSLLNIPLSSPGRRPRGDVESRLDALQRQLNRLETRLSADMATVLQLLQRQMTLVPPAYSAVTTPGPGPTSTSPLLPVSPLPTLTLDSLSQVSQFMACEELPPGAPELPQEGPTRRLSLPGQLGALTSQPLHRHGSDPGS
# In short: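 Step 1: BacMam hERG transduction of U2OS, 4 hrs RT. Step 2: overnight 37 °C, plate 2000 cells/well, 4 hr. Step 3: FluxOR load, compound 10 min, stimulate, read fluorescence.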
# [5] = biological target: Vitamin D3 receptor (Homo sapiens) (UniProt P11473); test: qHTS assay for small molecule antagonists of vitamin D receptor signaling (AID 588541); details: HEK293T VDR-UAS-bla, beta-lactamase ratio, antagonist mode; activity change, negative = inhibition: at 76.7 µM (top of the series);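 also: receptor activated by calcitriol during compound treatment; % is scaled to controls: 0 for no effect and ±100 for the full control effect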
# [6] = biological target: Vitamin D3 receptor (Homo sapiens) (UniProt P11473); test: qHTS assay for small molecule agonists of vitamin D receptor signaling (AID 588543); details: HEK293T VDR-UAS-bla, beta-lactamase ratio, 16 h; activation: at 76.8 µM (top of the series) unless noted;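 also: 0% = DMSO basal and 100% = reference agonist control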
# In short: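 Reporter cells (HEK293T, VDR-UAS-bla) were seeded in medium with 2% charcoal-stripped serum and incubated 5 h, then compounds in concentration series were added for 16 h at 37 °C. Stimulation was scaled between DMSO basal and 50 nM 1α,25-dihydroxyvitamin D3.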
# [7] = biological target: Thyroid hormone receptor beta (Homo sapiens) (UniProt P10828); test: qHTS assay for small molecule agonists of thyroid hormone receptor beta signaling (AID 588545); details: TR-UAS-bla GripTite HEK 293, beta-lactamase ratio, agonist mode, 18 h; activation: at 76.7 µM, percent of T3 response, DMSO as zero; also: potency is read from the fitted curve at half-maximal effect;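 as to activation: 0% = DMSO only and 100% = 10 nM T3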
# In short: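 TR-UAS-bla GripTite HEK 293 cells (2500/well, medium with 2% charcoal/dextran FBS) were treated in agonist mode for 18 h at 37 C, titrated. Beta-lactamase was read by CCF4 ratio after 2 h; normalized to 10 nM T3 (100%) and DMSO, Hill-fitted for EC50 and efficacy.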
# [8] = biological target: Retinoic acid receptor RXR-alpha (Homo sapiens) (UniProt P19793); test: qHTS assay for small molecule antagonists of retinoid X receptor alpha signaling (AID 588546; active = well fitted inhibition curve with a large enough effect in the signal ratio, with a control signal flat, not every such curve was filed as active; inconclusive = small, poorly fitted or top-dose-only effect, or effect the other way, or a change in a side signal; inactive = no such curve, though single readings can be large or run the other way; the % refers to the signal ratio; also: potency is read from the fitted curve at half-maximal effect;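 as to max response: cells stimulated with 9-cis-retinoic acid as agonist; % is scaled to controls: 0 for no effect and ±100 for the full control effect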); details: HEK293T RXRa-UAS-bla, beta-lactamase ratio, antagonist mode
# In short: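 Beta-lactamase reporter inhibition, read as CCF4 fluorescence ratio (ex 405, em 460/530 nm) after 2 h at RT. HEK293T UAS-bla cells, 2500/well, were stimulated with 9-cis-RA at 500 or 100 nM final alongside test compound for 18 h at 37 C.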
# [9] = biological target: Vitamin D3 receptor (Homo sapiens) (UniProt P11473); test: qHTS for Inhibitors of the vitamin D receptor (VDR): Hit Validation in Primary Screen (AID 602199; active = well fitted curve in the direction sought with a large enough effect; inconclusive = small, poorly fitted or top-dose-only effect, or another doubt; inactive = no such curve, though single readings can be large; an effect the other way counts as inactive or inconclusive; also: potency is read from the fitted curve at half-maximal effect); details: VDR-coactivator inhibition assay, qHTS confirmation
# In short: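 Fluorescence polarization (Ex 620/Em 688 nm) of Alexa 647-SRC2-3 peptide with 800 nM VDR and 5 uM LG19078. Compounds at several concentrations, 2 h at room temperature.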
# [10] = biological target: Vitamin D3 receptor (Homo sapiens) (UniProt P11473); test: qHTS for Inhibitors of the vitamin D receptor (VDR): Hit Validation using a Fluorescein Assay (AID 602200; active = well fitted curve in the direction sought with a large enough effect; inconclusive = small, poorly fitted or top-dose-only effect, or another doubt; inactive = no such curve, though single readings can be large; an effect the other way counts as inactive or inconclusive; also: potency is read from the fitted curve at half-maximal effect); details: VDR-coactivator binding, fluorescein fluorescence polarization
# In short: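 Fluorescence polarization: 1.5 uM VDR-LBD, 5 uM LG19078 and 5 nM fluorescein-labeled SRC2-3 peptide (final) with compounds, 2 h at room temperature. Read at Ex 495/Em 520 nm; peptide-only wells served as control.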
# Tags tell the direction and shape of the fitted curve or compound fluorescence and quenching.
structure (smiles),measurement,setting,value
O=C(CCCN1CCC(O)(c2ccc(Cl)cc2)CC1)c1ccc(F)cc1,Potency,[1],inactive
O=C1CN(/N=C/c2ccc([N+](=O)[O-])o2)C(=O)N1,Potency,[2],"inconclusive [side channel, rising, single point]"
same,Potency,[1],"inconclusive [fluorescent, side channel]"
same,activity change % (negative = inhibition),[3],inconclusive: 17.3%
same,Potency,[4],"inconclusive [inhibitor, single point]"
COC(=O)C1=C(C)NC(C)=C(C(=O)OC)C1c1ccccc1[N+](=O)[O-],"activity change, negative = inhibition",[5],inconclusive: -54.3%
same,Potency,[6],inactive
CC1(C)NC(=O)N(c2ccc([N+](=O)[O-])c(C(F)(F)F)c2)C1=O,Potency,[2],inactive
same,Potency,[3],"inconclusive [side channel, falling, full curve, poor fit]"
c1ccc2sc(SSc3nc4ccccc4s3)nc2c1,Potency,[1],inactive
same,activation,[7],inactive: -11% and inactive: -3.48%
same,max response,[8],inactive: 0.434% and inactive: -6.61%
CC(C)Cc1ccc(C(C)C(=O)O)cc1 (stereo not given),activation,[7],inactive: 8.93%
Oc1ccc(/C=C/c2cc(O)cc(O)c2)cc1,activation,[1],inconclusive: -12.8% and inconclusive: -39.7%
same,max response,[8],inconclusive: -65.9%
c1ccc2[nH]c(-c3cscn3)nc2c1,"activity, negative = inhibition",[2],inconclusive: 5.14%
same,Potency,[3],"inconclusive [side channel, falling, full curve, poor fit]"
O=c1c(-c2ccc(O)cc2)coc2cc(O)ccc12,"activity, negative = inhibition",[2],inconclusive: -25.8%
same,activation,[1],inconclusive: -21.7% and inconclusive: -37.1%
same,Potency,[3],"inconclusive [cytotoxic, side channel, single point]"
O=C(O)c1cc(O)c2c(c1)C(=O)c1cccc(O)c1C2=O,"activity, negative = inhibition",[2],inconclusive: 10.1%
same,activity change % (negative = inhibition),[3],inconclusive: 18.7%
Cc1[nH]c(=O)c(C#N)cc1-c1ccncc1,Potency,[1],"inconclusive [side channel, falling, full curve, poor fit]"
same,activity change % (negative = inhibition),[3],inactive: -2.81%
O=c1cc(-c2ccccc2)oc2ccccc12,"activity, negative = inhibition",[2],inconclusive: -2.71% and inconclusive: -5.41%
same,Potency,[7],"inconclusive [side channel, falling, full curve, poor fit]"
same,Potency,[8],"inconclusive [side channel, rising, full curve, poor fit]"
O=c1cc(-c2ccc(O)cc2)oc2cc(O)cc(O)c12,Potency,[2],active: 44.7 µM
same,activity change % (negative = inhibition),[3],inconclusive: -63.8%
Cc1ccc(C)c(OCCCC(C)(C)C(=O)O)c1,activation,[7],inconclusive: -14.8%
same,max response,[8],inactive: 1.18% and inactive: -8.41%
S=c1[nH]c2ccccc2s1,Potency,[1],"inconclusive [inhibitor, partial curve, poor fit]"
same,Potency,[7],"inconclusive [side channel, falling, full curve, poor fit]"
same,max response,[8],inactive: 18% and inactive: -15.5%
Nc1ccccc1N,"activity, negative = inhibition",[2],inconclusive: -26.9%
same,activation,[7],inactive: -12.5%
CCCCCCCCCCCCCCCC(=O)OC(C)C,Potency,[1],inactive
N[C@@H](Cc1c[nH]c2ccc(O)cc12)C(=O)O,Potency,[6],inactive
same,Potency,[7],"inconclusive [side channel, rising, full curve, poor fit]"
CNC[C@H](O)c1ccc(O)c(O)c1,Potency,[5],inactive
same,activity change % (negative = inhibition),[3],inconclusive: -15.5%
COc1ccc(O)cc1,"activity, negative = inhibition",[2],inconclusive: -30.9%
same,activity change % (negative = inhibition),[3],inconclusive: -4.74%
CCCCC1C(=O)N(c2ccccc2)N(c2ccc(O)cc2)C1=O (stereo not given),Potency,[9],"inconclusive [inhibitor, partial curve]"
O=[N+]([O-])c1ccc2c(c1)S(=O)(=O)C=C2,Potency,[10],"inconclusive [inhibitor, single point]"
